The labels stand for the following.
B1: 3HA-3FLAG-CIAO3, wildtype [human] / cytosolic iron-sulfur assembly component 2B (CIAO2B) [human (endogenous in Flp-In T-REx 293)] (parent)
chain 1: MASPFSGALQLTDLDDFIGPSQECIKPVKVEKRAGSGVAKIRIEDDGSYFQINQDGGTRRLEKAKVSLNDCLACSGCITSAETVLITQQSHEELKKVLDANKMAAPSQQRLVVVSVSPQSRASLAARFQLNPTDTARKLTSFFKKIGVHFVFDTAFSRHFSLLESQREFVRRFRGQADCRQALPLLASACPGWICYAEKTHGSFILPHISTARSPQQVMGSLVKDFFAQQQHLTPDKIYHVTVMPCYDKKLEASRPDFFNQEHQTRDVDCVLTTGEVFRLLEEEGVSLPDLEPAPLDSLCSGASAEEPTSHRGGGSGGYLEHVFRHAARELFGIHVAEVTYKPLRNKDFQEVTLEKEGQVLLHFAMAYGFRNIQNLVQRLKRGRCPYHYVEVMACPSGCLNGGGQLQAPDRPSRELLQHVERLYGMVRAEAPEDAPGVQELYTHWLQGTDSECAGRLLHTQYHAVEKASTGLGIRW
chain 2: MVGGGGVGGGLLENANPLIYQRSGERPVTAGEEDEQVPDSIDAREIFDLIRSINDPEHPLTLEELNVVEQVRVQVSDPESTVAVAFTPTIPHCSMATLIGLSIKVKLLRSLPQRFKMDVHITPGTHASEHAVNKQLADKERVAAALENTHLLEVVNQCLSARS
B2: 3HA-3FLAG-CIAO3, wildtype [human] / probable cytosolic iron-sulfur protein assembly protein CIAO1 [human (endogenous in Flp-In T-REx 293)] (parent)
chain 1: B1 chain 1
chain 2: MKDSLVLLGRVPAHPDSRCWFLAWNPAGTLLASCGGDRRIRIWGTEGDSWICKSVLSEGHQRTVRKVAWSPCGNYLASASFDATTCIWKKNQDDFECVTTLEGHENEVKSVAWAPSGNLLATCSRDKSVWVWEVDEEDEYECVSVLNSHTQDVKHVVWHPSQELLASASYDDTVKLYREEEDDWVCCATLEGHESTVWSLAFDPSGQRLASCSDDRTVRIWRQYLPGNEQGVACSGSDPSWKCICTLSGFHSRTIYDIAWCQLTGALATACGDDAIRVFQEDPNSDPQQPTFSLTAHLHQAHSQDVNCVAWNPKEPGLLASCSDDGEVAFWKYQRPEGL
B3: 3HA-3FLAG-CIAO3, wildtype [human] / POLD1 [human (endogenous in Flp-In T-REx 293)] (parent)
chain 1: B1 chain 1
chain 2: MDGKRRPGPGPGVPPKRARGGLWDDDDAPRPSQFEEDLALMEEMEAEHRLQEQEEEELQSVLEGVADGQVPPSAIDPRWLRPTPPALDPQTEPLIFQQLEIDHYVGPAQPVPGGPPPSRGSVPVLRAFGVTDEGFSVCCHIHGFAPYFYTPAPPGFGPEHMGDLQRELNLAISRDSRGGRELTGPAVLAVELCSRESMFGYHGHGPSPFLRITVALPRLVAPARRLLEQGIRVAGLGTPSFAPYEANVDFEIRFMVDTDIVGCNWLELPAGKYALRLKEKATQCQLEADVLWSDVVSHPPEGPWQRIAPLRVLSFDIECAGRKGIFPEPERDPVIQICSLGLRWGEPEPFLRLALTLRPCAPILGAKVQSYEKEEDLLQAWSTFIRIMDPDVITGYNIQNFDLPYLISRAQTLKVQTFPFLGRVAGLCSNIRDSSFQSKQTGRRDTKVVSMVGRVQMDMLQVLLREYKLRSYTLNAVSFHFLGEQKEDVQHSIITDLQNGNDQTRRRLAVYCLKDAYLPLRLLERLMVLVNAVEMARVTGVPLSYLLSRGQQVKVVSQLLRQAMHEGLLMPVVKSEGGEDYTGATVIEPLKGYYDVPIATLDFSSLYPSIMMAHNLCYTTLLRPGTAQKLGLTEDQFIRTPTGDEFVKTSVRKGLLPQILENLLSARKRAKAELAKETDPLRRQVLDGRQLALKVSANSVYGFTGAQVGKLPCLEISQSVTGFGRQMIEKTKQLVESKYTVENGYSTSAKVVYGDTDSVMCRFGVSSVAEAMALGREAADWVSGHFPSPIRLEFEKVYFPYLLISKKRYAGLLFSSRPDAHDRMDCKGLEAVRRDNCPLVANLVTASLRRLLIDRDPEGAVAHAQDVISDLLCNRIDISQLVITKELTRAASDYAGKQAHVELAERMRKRDPGSAPSLGDRVPYVIISAAKGVAAYMKSEDPLFVLEHSLPIDTQYYLEQQLAKPLLRIFEPILGEGRAEAVLLRGDHTRCKTVLTGKVGGLLAFAKRRNCCIGCRTVLSHQGAVCEFCQPRESELYQKEVSHLNALEERFSRLWTQCQRCQGSLHEDVICTSRDCPIFYMRKKVRKDLEDQEQLLRRFGPPGPEAW
B4: 3HA-3FLAG-CIAO3, wildtype [human] / ABCE1 [human (endogenous in Flp-In T-REx 293)] (parent)
chain 1: B1 chain 1
chain 2: not shown
B5: 3HA-3FLAG-CIAO3, wildtype [human] / MMS19 nucleotide excision repair protein homolog (MMS19) [human (endogenous in Flp-In T-REx 293)] (parent)
chain 1: B1 chain 1
chain 2: MAAAAAVEAAAPMGALWGLVHDFVVGQQEGPADQVAADVKSGNYTVLQVVEALGSSLENPEPRTRARAIQLLSQVLLHCHTLLLEKEVVHLILFYENRLKDHHLVIPSVLQGLKALSLCVALPPGLAVSVLKAIFQEVHVQSLPQVDRHTVYNIITNFMRTREEELKSLGADFTFGFIQVMDGEKDPRNLLVAFRIVHDLISRDYSLGPFVEELFEVTSCYFPIDFTPPPNDPHGIQREDLILSLRAVLASTPRFAEFLLPLLIEKVDSEVLSAKLDSLQTLNACCAVYGQKELKDFLPSLWASIRREVFQTASERVEAEGLAALHSLTACLSRSVLRADAEDLLDSFLSNILQDCRHHLCEPDMKLVWPSAKLLQAAAGASARACDSVTSNVLPLLLEQFHKHSQSSQRRTILEMLLGFLKLQQKWSYEDKDQRPLNGFKDQLCSLVFMALTDPSTQLQLVGIRTLTVLGAQPDLLSYEDLELAVGHLYRLSFLKEDSQSCRVAALEASGTLAALYPVAFSSHLVPKLAEELRVGESNLTNGDEPTQCSRHLCCLQALSAVSTHPSIVKETLPLLLQHLWQVNRGNMVAQSSDVIAVCQSLRQMAEKCQQDPESCWYFHQTAIPCLLALAVQASMPEKEPSVLRKVLLEDEVLAAMVSVIGTATTHLSPELAAQSVTHIVPLFLDGNVSFLPENSFPSRFQPFQDGSSGQRRLIALLMAFVCSLPRNVEIPQLNQLMRELLELSCCHSCPFSSTAAAKCFAGLLNKHPAGQQLDEFLQLAVDKVEAGLGSGPCRSQAFTLLLWVTKALVLRYHPLSSCLTARLMGLLSDPELGPAAADGFSLLMSDCTDVLTRAGHAEVRIMFRQRFFTDNVPALVQGFHAAPQDVKPNYLKGLSHVLNRLPKPVLLPELPTLLSLLLEALSCPDCVVQLSTLSCLQPLLLEAPQVMSLHVDTLVTKFLNLSSSPSMAVRIAALQCMHALTRLPTPVLLPYKPQVIRALAKPLDDKKRLVRKEAVSARGEWFLLGSPGS
B6: 3HA-3FLAG-CIAO3, wildtype [human] / CDKAL1 [human (endogenous in Flp-In T-REx 293)] (parent)
chain 1: B1 chain 1
chain 2: MPSASCDTLLDDIEDIVSQEDSKPQDRHFVRKDVVPKVRRRNTQKYLQEEENSPPSDSTIPGIQKIWIRTWGCSHNNSDGEYMAGQLAAYGYKITENASDADLWLLNSCTVKNPAEDHFRNSIKKAQEENKKIVLAGCVPQAQPRQDYLKGLSIIGVQQIDRVVEVVEETIKGHSVRLLGQKKDNGRRLGGARLDLPKIRKNPLIEIISINTGCLNACTYCKTKHARGNLASYPIDELVDRAKQSFQEGVCEIWLTSEDTGAYGRDIGTNLPTLLWKLVEVIPEGAMLRLGMTNPPYILEHLEEMAKILNHPRVYAFLHIPVQSASDSVLMEMKREYCVADFKRVVDFLKEKVPGITIATDIICGFPGETDQDFQETVKLVEEYKFPSLFINQFYPRPGTPAAKMEQVPAQVKKQRTKDLSRVFHSYSPYDHKIGERQQVLVTEESFDSKFYVAHNQFYEQVLVPKNPAFMGKMVEVDIYESGKHFMKGQPVSDAKVYTPSISKPLAKGEVSGLTKDFRNGLGNQLSSGSHTSAASQCDSASSRMVLPMPRLHQDCALRMSVGLALLGLLFAFFVKVYN

Variants of B1 are the subject of one assay. In words: affinity purification with PRM-based targeted proteomics. The conditions noted are these: with cytosolic iron-sulfur assembly component 2B (CIAO2B) [human (endogenous in Flp-In T-REx 293)]; 1 μg/ml doxycycline for 24 h; normalized to CIAO3 levels; two biological replicates; read off a plot.
Take chain 1 C190S C395S: the response (Log2Intensities) was 20.

Variants of B2 are the subject of the next assay. The description is as above. The conditions noted are these: with probable cytosolic iron-sulfur protein assembly protein CIAO1 [human (endogenous in Flp-In T-REx 293)]; 1 μg/ml doxycycline for 24 h; normalized to CIAO3 levels; two biological replicates; read off a plot.
Turning to chain 1 C190S C395S, the response (Log2Intensities) is 20.

In another assay the parent is B3. Described as above. The conditions noted are these: with POLD1 [human (endogenous in Flp-In T-REx 293)]; 1 μg/ml doxycycline for 24 h; normalized to CIAO3 levels; two biological replicates; read off a plot.
Consider chain 1 C190S C395S, for which the response (Log2Intensities) was determined as 18. On the same count and under the same terms, for chain 1 C71S the value was 14; for chain 1 C71S C190S C395S, 18.

In the next assay the parent is B4. The description is as above. The conditions noted are these: with ABCE1 [human (endogenous in Flp-In T-REx 293)]; 1 μg/ml doxycycline for 24 h; normalized to CIAO3 levels; two biological replicates; read off a plot.
chain 1 C71S: the response (Log2Intensities) amounted to 16.

chain 1 C71S C190S C395S: the response (Log2Intensities) is 20. On the same count and under the same terms, to chain 1 C190S C395S belongs 19.

The variants in another assay derive from B5. The description is as above. The conditions noted are these: with MMS19 nucleotide excision repair protein homolog (MMS19) [human (endogenous in Flp-In T-REx 293)]; 1 μg/ml doxycycline for 24 h; normalized to CIAO3 levels; two biological replicates; read off a plot.
Take chain 1 C190S C395S: the response (Log2Intensities) turned out to be 20.

In another assay the parent is B6. Described as above. The conditions noted are these: with CDKAL1 [human (endogenous in Flp-In T-REx 293)]; 1 μg/ml doxycycline for 24 h; normalized to CIAO3 levels; two biological replicates; read off a plot.
chain 1 C190S C395S: the response (Log2Intensities) is 18.

Turning to chain 1 C71S C190S C395S, the response (Log2Intensities) turned out to be 19.

For chain 1 C71S, the response (Log2Intensities) amounted to 15.

(Values after article PMC9243173.)
